The whole screen tested about 52,000 compounds, of which about 1,700 (3.3%) were called active. No stated cut-off is given here; in the data, active means survival mostly below about 52% (no sharp cut-off); inactive means mostly above about 56%. The list shows a part of the results.
What follows are compounds tested on Wild type (assay: growth inhibition of S. aureus wild type versus tarO mutant, primary screen, teichoic acid synthesis inhibitors, RN4220, OD600 (AID 463173)). Conditions: S. aureus RN4220 wild type/DeltatarO growth, OD600, 18 h, hits give low values, screened at 18.75 µg/mL (by protocol).

| SMILES | survival |
| --- | --- |
| Cc1ccc(NC(=O)C2CCCN(S(=O)(=O)c3c(C)nn(C)c3C)C2)c(C)c1 (centres undefined) | inactive: 76% |
| CCN1C(=O)c2ccccc2S(=O)c2ccc(C(=O)NCc3ccccc3OC)cc21 (centres undefined) | inactive: 82% |
| CCOC(=O)N1CCN(Cc2nc3cc(NC(=O)c4ccc([N+](=O)[O-])cc4)ccc3n2C(C)C)CC1 | inactive: 84% |
| CCCCCOc1ccc(NC(=O)Cn2c(-c3cncs3)nc3ccccc32)cc1 | inactive: 97% |
| CC(=O)NC(NC(C)=O)c1ccccc1 | inactive: 103% |
| COc1cccc(CNC(=O)Cn2c(SCC(=O)Nc3ccc(C)c(C)c3)nc3ccccc32)c1 | inactive: 76% |
| O=C(O)c1c2c(nc3ccc(S(=O)(=O)N4CCC(C(=O)NCc5ccc(Cl)cc5)CC4)cc13)CCCC2 | inactive: 80% |
| COc1ccc(S(=O)(=O)NCC(c2ccco2)N2CCN(c3ccccc3F)CC2)cc1C (centres undefined) | inactive: 99% |
| COc1cc(/C=C/c2nc3cc(Cl)ccc3c(=O)n2-c2ccc(C)cc2C)cc(OC)c1OC | inactive: 91% |
| CSc1ccc(NC(=O)Cn2nnnc2-c2ccccc2F)cc1 | inactive: 86% |
| CCOC(=O)c1c(C)oc2nc(C)nc(N3CCN(c4cccc(C)c4C)CC3)c12 | inactive: 89% |
| Cc1cc(Nc2cccc(C(F)(F)F)c2)nc2ccc(NC(=O)c3cccnc3)cc12 | inactive: 130% |
| CCc1cccc(NC(=O)c2cccc3c2C(=O)N(C2CCCCC2)C3)c1 | inactive: 84% |
| COc1ccc(Nc2ncnc3c2nc2n3CCCC2)cc1Cl | inactive: 59% |
| COc1nnc(-c2ccc(N3CCCCC3)c(NC(=O)c3ccccc3)c2)c2ccccc12 | active: -6% |
| O=C(NCC(c1cccnc1)N1CCc2ccccc21)C(=O)Nc1ccccc1F (centres undefined) | inactive: 108% |
| CCOC(=O)c1c(C)n(S(=O)(=O)c2ccc(C)cc2)c2ccc(NS(=O)(=O)c3ccc(C)cc3)cc12 | inactive: 82% |
| CC(NC(=O)c1cc(-c2ccc(Cl)cc2)on1)c1ccccc1 (centres undefined) | inactive: 140% |
| COc1ccc(CNC(=O)c2ccc3c(c2)N(Cc2ccccc2)CCS3)cc1 | inactive: 87% |
| CCOC(=O)c1nnn(CC(=O)NC(=O)Nc2ccc(F)cc2)c1C(=O)OCC | inactive: 133% |
| Cc1ccc(-n2nc3cc(C)c(NC(=O)Cc4ccc(Cl)cc4)cc3n2)cc1 | inactive: 66% |
| Cc1ccccc1C(=O)Nc1ccc2oc(-c3ccc(Cl)c(Cl)c3)nc2c1 | inactive: 77% |
| O=C(COc1ccccc1)NS(=O)(=O)c1ccc(N=NN2CCOCC2)cc1 | inactive: 105% |
| Cc1ccccc1Nc1nnc(-c2ccc(C)c(S(=O)(=O)N3CCCCC3)c2)c2ccccc12 | inactive: 111% |
